Experimental data: the supplement of paper PMC12217912
Some of the results follow. Sequences were assembled here from the parent chain. Values near 0.05 are background.

B1: TEV protease; numbered along this chain (parent)
chain: MGESLFKGPRDYNPISSSICHLTNESDGHTTSLYGIGFGPFIITNKHLFRRNNGTLVVQSLHGVFKVKDTTTLQQHLVDGRDMIIIRMPKDFPPFPQKLKFREPQREERICLVTTNFQTKSMSSMVSDTSCTFPSGDGIFWKHWIQTKDGQCGSPLVSTRDGFIVGIHSASNFTNTNNYFTSVPKNFMELLTNQEAQQWVSGWRLNADSVLWGGHKVFMVKPEEPFQPVKEATQL

Variants of: B1
Assay: raw area under fraction-flipped curve 0-4 h after induction (AUC4h, not background-subtracted), DNA-recorder readout of cleavage of the substrate (dimensionless); higher = more cleavage of the substrate by the protease variant
Conditions: temperature: 34 °C; time window: 0-4 h after rhamnose induction
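Note: Bxb1 expression induced with 0.2% (w/v) L-rhamnose at OD600 near 0.5, cultures sampled hourly, flipped fraction per protease–substrate barcode pair counted by paired-end Illumina sequencing.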

Row | Variant | area with substrate ENLYFCS | area with substrate ENLYFDS | area with substrate ENLYFES | area with substrate ENLYFFS | area with substrate ENLYFHS | area with substrate ENLYFIS | area with substrate ENLYFKS | area with substrate ENLYFMS | area with substrate ENLYFNS | area with substrate ENLYFPS | area with substrate ENLYFRS | area with substrate ENLYFSS | area with substrate ENLYFTS | area with substrate ENLYFVS | area with substrate ENLYFWS | area with substrate ENLYFYS | area with substrate ENLYFLS | area with substrate ENLYFGS
1 | MGESLFKGPRDYNPISSSICHLTNESDGHTTSLYGIGFGPFIITNKHLFRRNNGTLVVQSLHGVFKVKDTTTLQQHLVDGRDMIIIRMPKDFPPFPQKLKFREPQREERICLVTTNFQTKIMSSMVSDTSCTFPSGDGIFWKHWIQTKDGQCGSPLVSTRDGFIVGIHSASNFTNTNNYFTSVPKNFMELLTNQEAQQWVSGWRLNADSVLWGGHKVFMVKPEEPFQPVKEATQL [S121I] | 0.0555 | 0.0569 | 0.083 | 0.0603 | 0.0574 | 0.0614 | 0.0641 | 0.0729 | 0.0653 | 0.0584 | 0.0654 | 0.0403 | 0.0502 | 0.0631 | 0.0642 | 0.0525 | – | –
2 | MGESLFKGPRDYNPISSSICHLTNESDGHTTSLYGIGFGPFIITNKHLFRRNNGTLVVQSLHGVFKVKDTTTLQQHLVDGRDMIIIRMPKDFPPFPQKLKFREPQREERICLVTTNFQTKSMSSMVSDTSCTFQSGDGIFWKHWIQTKDGQCGSPLVSTRDGFIVGIHSASNFTNTNNYFTSVPKNFMELLTNQEAQQWVSGWRLNADSVLWGGHKVFMVKPEEPFQPVKEATQL [P134Q] | 0.0544 | – | 0.0623 | 0.061 | – | 0.063 | 0.0477 | 0.065 | – | 0.0623 | 0.0551 | 0.0638 | 0.0729 | – | 0.063 | – | 0.0476 | –
3 | MGESLFKGPRDYNPISSSICHLTNESDGHTTSLYGIGFGPFIITNKHLFRRNNGTLVVQSLHGVFKVKDTTTLQQHLVDGRDMIIIRMPKDFPPFPQKLKFREPQREERICLVTTNFQTKSMSSMISDTSCTFPSGDGIFWKHWIQTKDGQCGSPLVSTRDGFIVGIHSASNFTNTNNYFTSVPKNFMELLTNQEAQQWVSGWRLNADSVLWGGHKVFMVKPEEPFQPVKEATQL [V126I] | 0.0488 | 0.0732 | – | 0.0655 | 0.0658 | 0.0681 | 0.0558 | 0.0682 | – | – | 0.0531 | – | – | – | – | 0.0591 | – | 0.0549
4 | MGESLFKGPRDYNPISSSICHLTNESDGHTTSLYGIGFGPFIITNKHLFRRNNGTLVVQSLHGVFKVKDTTTLQQHLVDGRDMIIIRMPKDFPPFPQKLKFREPQREERICLVTTYFQTKSMSSMVSDTSCTFPSGDGIFWKHWIQTKDGQCGSPLVSTRDGFIVGIHSASNFTNTNNYFTSVPKNFMELLTNQEAQQWVSGWRLNADSVLWGGHKVFMVKPEEPFQPVKEATQL [N116Y] | 0.0644 | 0.0592 | – | 0.0725 | – | 0.0545 | – | 0.0765 | 0.0538 | 0.0582 | 0.0844 | – | 0.0669 | 0.0642 | 0.0638 | 0.0826 | 0.0653 | –
5 | MGESLFKGPRDYNPISSSICHLTNESDGHTTSLYGIGFGPFIITNKHLFRRNNGTLVVQSLHGVFKVKDTTTLQQHLVDGRDMIIIRMPKDFPPFPQKLKFREPQREERICLSTTNFQTKSMSSMVSDTSCTFPSGDGIFWKHWIQTKDGQCGSPLVSTRDGFIVGIHSASNFTNTNNYFTSVPKNFMELLTNQEAQQWVSGWRLNADSVLWGGHKVFMVKPEEPFQPVKEATQL [V113S] | 0.0542 | – | 0.0549 | 0.0706 | 0.03 | 0.0397 | – | 0.0534 | 0.0561 | 0.0429 | 0.0523 | 0.0399 | 0.0477 | 0.0613 | 0.0366 | 0.0415 | – | 0.0495
6 | MGESLFKGPRDYNPISSSICHLTNESDGHTTSLYGIGFGPFIITNKHLFRRNNGTLVVQSLHGVFKVKDTTTLQQHLVDGRDMIIIRMPKDFPPFPQKLKFREPQREERICLVTTNFQTKSMSSMVSDTSCTLPSGDGIFWKHWIQTKDGQCGSPLVSTRDGFIVGIHSASNFTNTNNYFTSVPKNFMELLTNQEAQQWVSGWRLNADSVLWGGHKVFMVKPEEPFQPVKEATQL [F133L] | 0.0771 | 0.067 | – | 0.0692 | – | – | – | 0.0641 | 0.0513 | 0.0618 | – | – | – | – | – | – | – | 0.0535
7 | MGESLFKGPRDYNPISSSICHLTNESDGHTTSLYGIGFGPFIITNKHLFRRNNGTLVVQSLHGVFKVKDTTTLQQHLVDGRDMIIIRMPKDFPPFPQKLKFREPQREERICLVTTNFQTKSMSSMVSDTSCEFPSGDGIFWKHWIQTKDGQCGSPLVSTRDGFIVGIHSASNFTNTNNYFTSVPKNFMELLTNQEAQQWVSGWRLNADSVLWGGHKVFMVKPEEPFQPVKEATQL [T132E] | 0.0509 | – | 0.0602 | 0.0724 | 0.0691 | 0.0506 | 0.0606 | 0.06 | 0.0485 | 0.05 | 0.0457 | 0.0515 | 0.0615 | – | 0.0581 | 0.0593 | – | 0.0717
8 | MGESLFKGPRDYNPISSSICHLTNESDGHTTSLYGIGFGPFIITNKHLFRRNNGTLVVQSLHGVFKVKDTTTLQQHLVDGRDMIIIRMPKDFPPFPQKLKFREPQREERICLVTTNFQTKSMSSMVSDTSCCFPSGDGIFWKHWIQTKDGQCGSPLVSTRDGFIVGIHSASNFTNTNNYFTSVPKNFMELLTNQEAQQWVSGWRLNADSVLWGGHKVFMVKPEEPFQPVKEATQL [T132C] | 0.0497 | – | 0.0709 | 0.0643 | 0.0558 | 0.0608 | – | 0.0623 | 0.0485 | – | 0.0687 | 0.0617 | 0.0502 | – | – | – | – | 0.0569
9 | MGESLFKGPRDYNPISSSICHLTNESDGHTTSLYGIGFGPFIITNKHLFRRNNGTLVVQSLHGVFKVKDTTTLQQHLVDGRDMIIIRMPKDFPPFPQKQKFREPQREERICLVTTNFQTKSMSSMVSDTSCTFPSGDGIFWKHWIQTKDGQCGSPLVSTRDGFIVGIHSASNFTNTNNYFTSVPKNFMELLTNQEAQQWVSGWRLNADSVLWGGHKVFMVKPEEPFQPVKEATQL [L99Q] | 0.0632 | 0.0365 | – | – | 0.0479 | 0.0547 | 0.0798 | 0.0706 | 0.0525 | 0.0599 | 0.0516 | – | – | – | 0.0784 | – | – | –
10 | MGESLFKGPRDYNPISSSICHLTNESDGHTTSLYGIGFGPFIITNKHLFRRNNGTLVVQSLHGVFKVKDTTTLQQHLVDGRDMIIIRMPKDFPPFPQKLKFREPQREERICLVTYNFQTKSMSSMVSDTSCTFPSGDGIFWKHWIQTKDGQCGSPLVSTRDGFIVGIHSASNFTNTNNYFTSVPKNFMELLTNQEAQQWVSGWRLNADSVLWGGHKVFMVKPEEPFQPVKEATQL [T115Y] | 0.0598 | 0.0626 | 0.0641 | – | 0.0509 | 0.0693 | – | 0.0707 | 0.0779 | 0.0556 | 0.0658 | – | – | – | 0.0592 | – | – | –
